Source: the supplement of paper PMC3334620
Over roughly 33,000 sequences, “E-score (-0.5 to 0.5)” has its median near -0.021; the highest 2% begin near 0.32. The list shows a part of the results.

Biological target: T1, Zap1 (UniProt P47043)
T1 sequence: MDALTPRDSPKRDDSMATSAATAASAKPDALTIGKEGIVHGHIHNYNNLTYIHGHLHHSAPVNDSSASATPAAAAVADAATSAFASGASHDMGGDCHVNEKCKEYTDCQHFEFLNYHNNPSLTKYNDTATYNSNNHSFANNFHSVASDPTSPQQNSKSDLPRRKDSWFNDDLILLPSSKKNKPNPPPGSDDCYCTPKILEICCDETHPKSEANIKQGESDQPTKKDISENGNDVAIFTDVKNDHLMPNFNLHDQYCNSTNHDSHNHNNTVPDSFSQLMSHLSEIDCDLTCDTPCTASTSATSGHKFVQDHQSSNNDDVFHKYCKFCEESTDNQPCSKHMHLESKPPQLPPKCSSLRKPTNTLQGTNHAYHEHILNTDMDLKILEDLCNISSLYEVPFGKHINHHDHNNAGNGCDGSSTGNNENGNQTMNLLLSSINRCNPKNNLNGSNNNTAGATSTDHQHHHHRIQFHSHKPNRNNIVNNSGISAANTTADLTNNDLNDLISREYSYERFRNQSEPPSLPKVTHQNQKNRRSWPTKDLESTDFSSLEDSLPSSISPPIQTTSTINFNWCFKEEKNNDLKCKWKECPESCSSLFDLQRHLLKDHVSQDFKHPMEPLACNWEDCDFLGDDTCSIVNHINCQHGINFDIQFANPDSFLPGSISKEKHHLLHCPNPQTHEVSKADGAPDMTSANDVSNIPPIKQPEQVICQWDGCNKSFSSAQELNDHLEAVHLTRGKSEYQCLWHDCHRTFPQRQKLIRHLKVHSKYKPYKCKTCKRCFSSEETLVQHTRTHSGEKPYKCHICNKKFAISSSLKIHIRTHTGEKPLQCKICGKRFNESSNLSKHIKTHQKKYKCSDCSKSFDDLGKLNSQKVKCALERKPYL
Test: PBM E-score (8-mer binding enrichment) (E-score (-0.5 to 0.5)); higher = stronger / more preferred TF binding; most listed sequences are background and not binding sites
Conditions: protein concentration: 200 nM; construct: GST-full length
Outline: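 E-scores (a modified Wilcoxon-Mann-Whitney statistic) were assigned by the Universal PBM Analysis Suite to every ungapped eight-base word pooled with its reverse complement. The input came from universal all-10-mer Agilent arrays made double-stranded by primer extension and probed with GST-tagged yeast transcription factors at about 100-200 nM. Fluorescent anti-GST detected bound protein, and masliner normalised the scans.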

Sequence	PBM E-score
CCAATTCC	0.142
ATTATCGC	0.249
CGGAAAAA	0.179
AACTGTGG	0.261
ATGGACAA	0.0897
AGGGTATG	0.395
AGGCAGGC	-0.28
AACTTAAC	0.244
GCACGTGA	-0.176
ATTTCTAC	0.0903
ACTACTTG	-0.0293
ATACCGTG	-0.0327
CAATCCCG	0.105
GAAGCACA	-0.132
CCCCGGGG	0.211
GGTTGAAC	0.162
ACCTGGGC	-0.242
AAGAATCA	-0.0872
CATTAACG	0.0999
GCGTGTCC	-0.175
ACACATGT	0.0111
ATCCGCTA	-0.157
CATTCAGA	0.0592
ATTAAGAC	0.0665
CCTGATTC	-0.141

Sequence	PBM E-score
CGCATAAA	0.0783
ATATCACG	-0.193
GCACTCAA	-0.0596
TGTACACA	0.0485
ACCCCGGA	0.287
AAAGTGCT	-0.0876
AAAAGGCA	0.192
AGCACCGA	0.0191
ATACTGGA	0.104
AAAGGATT	-0.0714
CAACCACA	0.291
CTGACAAA	0.0942
ATAGCCTG	0.00972
AAGCCCAG	-0.157
AAGGCAAT	-0.1
GGTGTTGA	-0.0445
CGCCCCGC	0.00649
ACATAGAC	-0.104
GACTGCAA	-0.114
ACACATCC	-0.0974
TCCAATAA	0.23
AACGTACT	0.0257
CTCGGCAG	-0.15
AAGTGCGT	-0.0507
CCGGGTGA	0.218

Sequence	PBM E-score
AAGCACCT	0.00133
GCATAAAA	0.108
CACCTGCG	-0.129
ATATTGGC	-0.0138
ACTCGTGA	-0.135
AACGTTCG	-0.104
CGTCCCGC	-0.0499
AAGATAGC	-0.144
AAGCTTTG	-0.0861
ATGTGAGC	-0.323
TCAGGTCA	0.199
GAAAGAGA	-0.00161
CTTCTAGA	-0.105
ACCGTCCC	-0.132
ATCCGCTG	-0.219
AACTTCCG	-0.00312
ACTTTAAT	0.126
ATGCAGTA	0.0225
ACGGAGCG	-0.242
AACAGAAT	-0.121
GTATTCAA	0.123
GATACACA	-0.0237
CATTTTGG	0.144
CTAAATCA	0.153
AGAAATAG	0.101

Sequence	PBM E-score
GTACCCGA	0.184
ACACTGCT	-0.156
CTCTCCGA	-0.0405
TGCCAGAA	-0.0227
GAGAAGAA	0.0995
AGCGATTG	-0.19
ACTGAGAG	-0.205
GCCCGTCC	-0.318
ACTTCTAA	-0.0406
ACGGTACG	0.0714
TACTTGCA	0.0221
AGGTTCTG	0.0612
GGGTCTGA	-0.0635
CCTACATA	0.0736
AGTCGAAA	-0.107
GTGGCATA	-0.0833
GTAAATAA	0.154
TAGTTTCA	0.0596
GACAGTCA	-0.217
AGTAGCTC	-0.177
ATATGCCG	-0.0539
TACATGAA	-0.11
CACCTCGG	0.0517
ACTGGACT	-0.178
GGAACTCC	-0.155

Sequence	PBM E-score
AGGACATA	0.118
GTATCCTA	0.101
GTCCTGTA	0.0824
GACATAAA	0.0452
CACAGACG	-0.0494
ATTAGGTC	0.242
AGCACTTA	-0.191
TAGTACTA	0.263
GTTGTTCA	0.0615
GAATTAAA	0.0572
ACCGCCGG	0.0345
CTACGTTA	-0.0352
ATTATTAG	0.0497
GGTCTCAA	0.169
CGACACAG	0.0118
AGCATGCT	-0.116
CCCAACAA	0.156
CTAGATCC	-0.117
CCTAAACC	0.0156
GCCTGTGA	-0.183
GTCGTCAC	0.183
ACGGTGAA	-0.0282
ATTTTGGG	0.206
CAAACTTA	0.0348
CACATACA	-0.0437

Sequence	PBM E-score
GGTCGTCA	0.172
AACTACCA	0.179
CACCACGG	-0.112
AAGCTTAA	0.0366
GCTCTGCA	-0.108
CTAAACCC	0.051
CCAGTTTC	-0.0588
TTCTCAAA	0.185
CACCCAGG	0.053
CCACGGAG	0.0833
AAGCTAAG	-0.101
TCCAAGAA	-0.0864
TATTGCGA	0.17
CTGGTATA	-0.0413
TCCCGCCA	-0.0582
GGCTTATA	-0.0306
ACCGAGTA	-0.0716
AATCACGC	-0.0575
ATTGGGCG	-0.0725
CTATTTAC	0.0797
ATATATTG	-0.0627
GAGCTGAA	-0.144
AATGCAAG	0.0663
CGTCTCAC	-0.107
CGAGAGAC	-0.109

Sequence	PBM E-score
CAATCCGC	-0.0297
ACTAAGAT	0.164
TGGTAAAA	0.121
GCGAGTGA	0.0176
AACATCAA	0.0874
CGTAGGTC	-0.135
ATAGAGGG	-0.0117
ACTTCTCC	-0.155
ATACCTAT	0.198
CAAGCCTG	-0.201
GCGTTCAC	-0.0284
ATGTTGCC	-0.203
ACTACAGT	0.0525
AGCGGCCC	-0.193
AAATGCGT	-0.113
TCATGTAA	0.0291
GAGTCTGA	-0.232
ATTTGTAC	0.0992
CATAGACA	0.0191
GAAACCTA	0.0599
AAGATTAA	0.0788
GACCCTTA	0.376
